According to ChEMBL document CHEMBL4888484, “Replenishing the malaria drug discovery pipeline: Screening and hit evaluation of the MMV Hit Generation Library 1 (HGL1) against asexual blood stage Plasmodium falciparum ,using a nano luciferase reporter read-out” (2022):
Screen size: about 150,000 compounds; about 540 (0.36%) showed an effect of 50% or more. This is one part of the list.

tested on: Plasmodium falciparum; test: Primary screen in NF54 nanoGlo assay, in single point, at 2uM, 72h; a lower Z score goes with more inhibition; assay type: functional, Erythrocyte; settings: timepoint 72 hour

Compound	% Inhibition [%]	Z score
CN1C(=O)CN(C(=O)c2cc(C3CC3)nn2C)c2ccccc21	-16	2.02
O=C(Nc1ccccc1-c1cc(F)c(F)c(F)c1)N1CC[C@@H](O)C1	-18	2.07
O=C(NCc1ccon1)[C@@H]1CC(Cc2cccc3ccccc23)=NO1	-8	1.44
Cc1cc(F)ccc1OC1(C(=O)O)CCN(C(=O)CCC2CC2)CC1	-5	0.88
COC(=O)c1ccccc1NCc1ccc2c(c1)OCCO2	-4	0.53
CCc1ccc(NC(=O)N(Cc2ccccc2)Cc2cccn2Cc2ccc(Cl)cc2)cc1	-4	0.78
Cc1cc(NC(=O)c2ccco2)n(-c2nc3c(cnn3-c3ccc(Cl)cc3)c(=O)[nH]2)n1	-12	2.26
Cc1ccn2nc(C(=O)N3CCC[C@H](N)C3)cc2c1	-12	1.65
COC(=O)C1CC(Oc2ccccc2F)CN1C(=O)Nc1cccc(C)c1 (stereo unspecified)	-7	1.3
CCCCOCCCNS(=O)(=O)c1ccc(NC(C)=O)cc1	-13	2.45
COc1ccc(S(=O)(=O)Oc2ccccc2CN(C[C@H]2CCCO2)C(=O)NC(C)C)cc1	2	-0.21
CN1CCN2C(=O)N(Cc3ccc(F)cc3)C[C@H]2C1	15	-1.79
Cn1ccc2cc(S(=O)(=O)N3CCC[C@H](C(=O)NCCc4cccs4)C3)ccc21	-21	3.9
O=C(Nc1cccc(F)c1)Nc1cccc(-c2nnc3n2CCCC3)c1	-8	0.77
Cc1noc(C)c1CCc1ncnn1C1Cc2ccccc2C1	-13	2.18
O=C(NC[C@@](O)(c1ccco1)C1CC1)c1ccco1	-12	2.02
CCCCCOCC(=O)NCC1CC(=O)NC(C)C1 (stereo unspecified)	6	-1.21
Cc1sc(NC(=O)c2cccnc2)nc1-c1ccc2c(c1)NC(=O)[C@H](C)O2	-3	0.43
C[C@H]1CC(C)(C)c2ccccc2N1C(=O)c1cc(S(=O)(=O)N(C)C)cn1C	-8	1.33
CCC[C@H](C)NC(=O)c1cc(C)ccc1C	-8	1.45
O=C(C[C@@H]1NC(=O)N(c2ccccc2)C1=O)NCCc1nc2ccccc2[nH]1	-4	0.5
Nc1ccn2ncc(C(=O)NC3CCC4C(C3)C4(F)F)c2c1 (stereo unspecified)	14	-2.03

Compound	% Inhibition [%]	Z score
Cc1ccc(N2CC3C4CC5C(OC2C35)C4O)cc1 (stereo unspecified)	-13	1.56
CC[C@H]1CCCCN1S(=O)(=O)c1cccc(-c2nc(-c3ccc(C)cc3)no2)c1	-10	1.5
c1ccc(COCc2cn(CCN3CCOCC3)nn2)cc1	-8	1.24
COCc1cc(N2C[C@H]3C[C@H](C2)[C@@H]2CCCC(=O)N2C3)ncn1	-16	1.76
O=C(Nc1ccc(N2CCOCC2)cc1)[C@H]1CCN(c2cn[nH]c(=O)c2)C1	-14	1.91
Oc1c(F)cc(F)cc1-c1ccc(F)c2cccnc12	1	-0.18
Cc1sc(NC(=O)[C@@H]2COc3ccccc3O2)nc1-c1ccccc1	-5	0.92
O=C(NCc1cccc(NC(=O)c2ccco2)c1)c1ccoc1	-20	3.8
O=C(CNC(=O)c1cccs1)Nc1ccc2c(c1)OCCCO2	-8	0.83
CCN(C[C@H]1CCOC1)C(=O)NCc1csc(C)n1	-12	2.22
O=C(Nc1nc2cc3c(cc2s1)OCCCO3)c1ccoc1Cl	0	0.08
Cc1cc(C(F)(F)F)c2c(=O)n(CC(=O)N3CCCc4ccccc43)n(C)c2n1	0	0.05
CCCCc1noc(C(C)NCC2CCOC2c2cnn(C)c2)n1 (stereo unspecified)	5	-0.55
CCC(=O)Cn1nnnc1Cc1ccc(Br)cc1	-9	1.37
NC(=O)[C@@H]1CN(C(=O)c2ccncc2C(F)(F)F)CCO1	3	-0.5
CC1CN(C(=O)CCCn2ccnc2)CC(C)N1 (stereo unspecified)	-5	0.53
CC1CN(C(=O)c2cc3ccc(C(C)(C)C)cc3[nH]2)CC2(CCOC2C)O1 (stereo unspecified)	-1	0.11
Cc1nnc(CN(CCN2CCOC[C@@H]2C)C(C)(C)C)o1	1	-0.06
C[C@@H](c1ccccn1)N(Cc1ccccc1)C(=O)c1cccnc1	-13	2.03
CCc1onc(C)c1CNC(=O)Nc1ccn2cc(C)nc2c1	-9	1.27
CCC(CC)C1CC(NC(=O)N[C@@H]2COC(=O)C2)CCO1 (stereo partly specified)	0	0.09
CCCCn1c(C)c(C)c(S(=O)(=O)c2ccc(OC)cc2)c1NC(=O)c1ccco1	-5	0.68

Compound	% Inhibition [%]	Z score
CC(C)(C)OC(=O)N1CCC(COc2nc3ccccc3s2)CC1	-16	1.81
COc1ccc(OC)c(Cc2nnc(CCC(=O)N3C[C@H]4CCC[C@@H]3C4)o2)c1	0	-0.04
Cc1cccc2c(N[C@H]3CCCN(CCO)C3=O)ncnc12	-11	1.69
COc1ccc(C(=O)N2CCN=C2N2CCCC2)cc1	-7	0.7
C[C@@]12CN(C(=O)COC3CCCC3)C[C@@H]1CN(c1nc3ccccc3o1)C2	-14	2.11
c1ccc(OCCNCc2ccncc2)nc1	34	-3.85
C=C(C)Cn1c([C@H]2CCS(=O)(=O)C2)nnc1N1CCC(Nc2cccc(C)c2)CC1	-6	0.56
CC(CO)NC(c1ccc(Br)cc1)C1CCCO1 (stereo unspecified)	-4	0.37
CC(C)OCCCNc1nnc(C(C)(C)C)o1	-1	0.19
Cn1c(=O)c(CN2CCOCC2)nc2cc(F)ccc21	-1	0.14
Nc1nc(CCC(=O)N2C[C@@H]3CC[C@H]2CN(Cc2ccccn2)C3)cs1	-2	0.4
C[C@@H](C(=O)NC1(C(=O)O)CCCC1)c1cccs1	0	-0.02
COC(=O)CN(CC(C)C)c1ccnc(C(C)(C)C)n1	2	-0.24
O=C(CCc1ccc(S(=O)(=O)N2CCCC2)cc1)N1CCCC1	-20	2.6
CCOC(=O)[C@H](Cc1ccncc1)NC(=O)c1cc(C)sn1	-3	0.45
Cc1ccnc(CNC2CCN(c3ccccc3C)CC2)c1	14	-1.83
CNCc1nc(-c2ccco2)nn1CC(C)(C)O	-6	0.95
CNc1cc(N2CCC(c3nnc(Cn4cncn4)n3C)CC2)nc(N)n1	-17	2.11
CC1(C(=O)N2CCCN(Cc3ccccc3)CCOCC2)COC1	-2	0.43
CCOc1ccccc1CNC(=O)c1ccc(-c2ccsc2)nc1	-15	2.02
C#CCN(CCC)C(=O)c1ccncc1Cl	-11	1.37
CC(NC1c2ccccc2CCC1(C)C)c1nccn1C (stereo unspecified)	-8	0.86

Compound	% Inhibition [%]	Z score
Cn1c(C(C)(C)NC(=O)CN2CCC(CO)CC2)nc2ccccc21	-5	1.08
CC[C@H]1CCc2sc(C(=O)N(C)Cc3cccnc3)cc2C1	-1	0.18
O=C(CCN1CCC([C@H](O)c2cccs2)CC1)N1CCc2ccccc2C1	1	-0.21
Cc1cc(C(=O)N2CCCN(c3ccc(F)c(F)c3)CC2)no1	3	-0.49
CCn1cc(-c2nc(C)c(C(=O)Nc3cc(F)cc(F)c3)s2)c2cccnc21	-6	1
Cc1nc(Cn2cccnc2=O)n(-c2ccc(Cl)cc2)n1	-12	1.65
CCc1n[nH]c(=O)c(C(=O)N2CCCCCCC2)c1CC	25	-2.83
O=C(NCc1ccnc(-c2cccs2)c1)Nc1ccccc1C(F)(F)F	5	-0.71
Nc1nnc(CNC(=O)[C@H]2CC23CCCCC3)s1	-2	0.37
COCCNC(=O)NC(=O)COc1c(C)cc(Br)cc1Cl	-12	2.14
Nc1ccc(N2CCN(c3nc(C4CCCCC4)ns3)CC2)cn1	1	-0.11
CCNC(=O)c1cccc(N2CCCN(Cc3cccc(C)c3)C2=O)c1	-2	0.36
Fc1cccc(C[n+]2csc3ccccc32)c1	-31	6.04
CC(C)[C@@H](NC(=O)c1ccc(Cl)s1)C(=O)O	7	-0.79
N[C@H]1CCCN(C(=O)NCCc2cccc(Cl)c2)C1	1	-0.13
O=C(COc1ccccc1)Nc1ccc2ncnc(N3CCCCC3)c2c1	0	0.07
Cc1ncsc1CNC(=O)NCCOc1ccc(Cl)cn1	-12	2.23
Cc1ccc(OCCOCCN(C)Cc2ccccc2)cc1C	5	-0.73
Cc1nc(CCCNS(=O)(=O)c2cncc(Cl)c2)n[nH]1	-7	0.73
CC1CCN(c2nc3c(c(N(C)C)n2)CNCC3)CC1	13	-2.16
NC(=O)c1ccc(C(F)(F)F)nc1N1CCOC[C@@H](O)C1	6	-0.85
CC(C)CC1(CNC(=O)C2(C#N)CCC2)CCC1	27	-3.06
